Measured values as given in article PMC12136788.
This is one part of the list.

T1: UNK ZnF1-6 (called full-length) (human, UniProt Q9C0B0 30-357)
T1 sequence: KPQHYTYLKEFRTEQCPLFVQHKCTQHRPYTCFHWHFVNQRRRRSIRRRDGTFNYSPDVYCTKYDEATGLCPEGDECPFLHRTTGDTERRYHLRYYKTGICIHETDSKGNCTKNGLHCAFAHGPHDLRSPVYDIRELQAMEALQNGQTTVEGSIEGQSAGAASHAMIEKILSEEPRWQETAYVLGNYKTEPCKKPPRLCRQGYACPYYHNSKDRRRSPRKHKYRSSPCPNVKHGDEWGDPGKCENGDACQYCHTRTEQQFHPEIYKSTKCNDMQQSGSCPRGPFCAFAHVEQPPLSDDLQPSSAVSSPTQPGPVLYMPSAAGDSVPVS

B1: chr13:79312715:79312816:-|3pUTR|ENSG00000139746|unk|total|mutant (ssRNA)
RNA: GGGAGUUCUACAGUCCGACGAUCCCUUGUGAUUUAUUAUAAUGCCGCAGCAUACUUAUAAAAGUGGUCUGUGCUGAGUCAGACCGAGAGCCCAGCCCAUCCGAAACACAUCAUAAUUUAAGAAUAUGAUGCAGAAUGCCCUUACAACAGAGGAUUGAGCAUCA
B2: ENSG00000070961:be:win_401|CDS|ENSG00000070961|bound_else_gene|NA|bound_elsewhere_windowed (ssRNA)
RNA: GGGAGUUCUACAGUCCGACGAUCAUGCACUUUGUGGAGAAGUUUCUGUUGGGGAGGAAGAAGGUGAAGGUGAAACUGGUUGGAUUGAAGGAGCUGCAAUCCUCUUGUCUGUAGUGUGUGUGGUGUUAGUAACAGCUUUCAAUGCAACAGAGGAUUGAGCAUCA
B3: chr11:35231115:35231675:+|3pUTR|ENSG00000026508|msi1|FALSE|unique (ssRNA)
RNA: GGGAGUUCUACAGUCCGACGAUCCAGGACAAGGUUCAAAAUGGUUACAACAGCCUCUACCUGUCGCCCCAGGGAGAAAGGGGUAGUGAUACAAGUCUCAUAGCCAGAGAUGGUUUUCCACUCCUUCUAGAUAUUCCCAAAAAGCAACAGAGGAUUGAGCAUCA
B4: chr7:7234405:7234460:+|CDS|ENSG00000106392|msi1_unk|total|mutant (ssRNA)
RNA: GGGAGUUCUACAGUCCGACGAUCAAUUUUUUAACCUUCCUCUGUGGAUCAGCAACCGGAUUUCUUUUAUGUUCUCAGCUAUUCCGUAUUUUGUUGGGAGAAAAGGUUGACACCCAGCCUAAUGUUCUUCAUAAUGAUCCUCAUCAACAGAGGAUUGAGCAUCA
B5: chr8:80637648:80637749:-|3pUTR|ENSG00000164684|unk|total|mutant (ssRNA)
RNA: GGGAGUUCUACAGUCCGACGAUCUGCGCUCCGCUGCAAAGUGCCUGUCAGCAGCUCCAGGCACCAACAAGGUGCCCUUUUAUCCGACAAUUCCUGCCCGAACAUAACCAUAUUGCAGAUGAAAAUUUUCAACCGAGAAUGACACAACAGAGGAUUGAGCAUCA
B6: chr2:209733988:209734100:+|3pUTR|ENSG00000078018|unk|total|mutant (ssRNA)
RNA: GGGAGUUCUACAGUCCGACGAUCUCUGAUAAUUCCCGAGCCUGUUACCACCGAAAGGCAUUUCUUCAAUGGCUGGUUGCCGUCCGUUCAUGUUUUUCAAUCAAAUUUGCAAAUGUAUUUGUUGCUGUACCGUGAUUGUUUUGCCAACAGAGGAUUGAGCAUCA
B7: ENSG00000198589:be:win_8251|CDS|ENSG00000198589|bound_else_gene|NA|bound_elsewhere_windowed (ssRNA)
RNA: GGGAGUUCUACAGUCCGACGAUCCUCUUCUGUACAUUCAGUGUGAAUGGAAAACUCCAGGCCACGAUGGAAACAGAUGAUAACAUAAGAGCCAUCCAGCUGAGCCGAGAUGGGCAGUACCUGCUCACAGGAGGAGACAGAGGACAACAGAGGAUUGAGCAUCA
B8: ENSG00000107863:be:win_1951|CDS|ENSG00000107863|bound_else_gene|NA|bound_elsewhere_windowed (ssRNA)
RNA: GGGAGUUCUACAGUCCGACGAUCCCAGUAAAUCACUUGCAUCAGAACAGUCUGUUGAAUCAGCAGACAUGGGUAAGGACUGACAGUGCCCCCGAUCAGCAAGUGGAGACUGGGAAAUCCCCCUCUUUAUCUGGAGCCUCUGCCCAACAGAGGAUUGAGCAUCA
B9: chr15:73714018:73714119:+|3pUTR|ENSG00000103855|msi1|total|mutant (ssRNA)
RNA: GGGAGUUCUACAGUCCGACGAUCCCCACCCAUAAUUCUUACCCAGAGCAUGGGGUUGGGGCGGAAACCUGGAGAGAGGGACACCGCCCCUCGCCACGGCCCGAGAAUCUGGUGGUGUCCAAAAUGUCUGUCCAGGUGUGGGCACAACAGAGGAUUGAGCAUCA
B10: chr12:285015:285116:-|3pUTR|ENSG00000073614|msi1|total|mutant (ssRNA)
RNA: GGGAGUUCUACAGUCCGACGAUCUAACAGGGCAUACCGGAUGUGGCUUUUGUCCAGCUGACCGCCGUCCGAGGCUUACAACUCCGGAGCAGCACCAACUGAAGGUGCUAAUUGCUUGGAUCUCCUUCAUUGGGACCGUUGGAGCAACAGAGGAUUGAGCAUCA
B11: chr8:96333981:96334082:+|3pUTR|ENSG00000156471|msi1|FALSE|bound_elsewhere (ssRNA)
RNA: GGGAGUUCUACAGUCCGACGAUCUUAAGUUCAGGCCACUUUUCUGUCUUUUAUUUGGUUACUGUUGUUAUUUGUUUUUAAGUUAGGAUGCUUUUUAACAGCCUUUAGAAGCCGCUGCUGAAAUUGAUACUGGGGGAAGGGUUCCAACAGAGGAUUGAGCAUCA
B12: chr5:136988535:136988636:-|CDS|ENSG00000152377|msi1|FALSE|unique (ssRNA)
RNA: GGGAGUUCUACAGUCCGACGAUCGGAAAGCAUCAGGCUUGGUGGCAGCUGAGAUAUGCCUUUUGUUUGGCAGGGUUUGACACUAGCAUCCUGCCCAUCUGCAAGGACUCCCUGGGCUGGAUGUUCAACAAGUUGGACAUGAACCAACAGAGGAUUGAGCAUCA
B13: chr1:20652278:20652361:-|3pUTR|ENSG00000244038|msi1_unk|total|mutant (ssRNA)
RNA: GGGAGUUCUACAGUCCGACGAUCGACUGAGGGGCCCGAGCCCUCUCCGCACAGCGUGGAGACGGGGCAAGGAGGGGGGUUAUCCGGAUUGGUGGUUUUGUUUUGCUUUGUUUAAAGCCGUGGGAAAAUGGCACAACUUUACCUCAACAGAGGAUUGAGCAUCA
B14: ENSG00000107863:be:win_1801|CDS|ENSG00000107863|bound_else_gene|NA|bound_elsewhere_windowed (ssRNA)
RNA: GGGAGUUCUACAGUCCGACGAUCACUACUUGUGGAAUGUCACUGCCUCGGGGUAUUUCACAAGACAGGUCACCUCUUGUGAAAGUCCGAAGUAAUUCUCUGAAAGCUCCUUCCACGCAUGUCACAAAACCAUCAUUUAGCCAGCAACAGAGGAUUGAGCAUCA

target: T1, UNK ZnF1-6 (called full-length); test: nsRBNS (natural sequence RNA bind-n-seq); RBNS binding buffer (assumed for nsRBNS): 25 mM Tris pH 7.5, 150 mM KCl, 3 mM MgCl2, 0.01% Triton X-100, 500 ug/ml BSA, 20 U/ml SUPERase-In, 4 C; UNK is unkempt and MSI1 is Musashi-1; names of the RNAs are library labels; protein concentration not given here; high values mean tight binding

Binder	binding signal
B1	0.561 enrichment R
B2	1.25 enrichment R
B3	0.588 enrichment R
B4	0.449 enrichment R
B5	0.744 enrichment R
B6	0.282 enrichment R
B7	0.515 enrichment R
B8	0.709 enrichment R
B9	0.496 enrichment R
B10	0.786 enrichment R
B11	1.21 enrichment R
B12	0.8 enrichment R
B13	0.793 enrichment R
B14	0.572 enrichment R
